# Data taken from the supplement of paper PMC11417369.
# ± gives the standard deviation of the averaged measurements. This is one part of the list.
# Test system: PfAP2-G AP2 domain (GST-tagged)
# Assay: gcPBM binding intensity (ln(normalized median fluorescence intensity)); higher = stronger DNA binding
# Procedure, shortened: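 Probes on an Agilent 4 × 180k array were primer-extended, double-stranded and 36 bp long, taken from intergenic genomic regions, with negative controls added. GST-tagged P. falciparum DNA-binding domains from E. coli, about 25 μg on average, were applied to the array for 1 h in 1× PBS containing 1% milk, 0.2 mg/ml BSA, 0.5% salmon testes DNA and 0.03% Triton X-100. Binding intensity, obtained after Alexa488 anti-GST antibody detection and a 488 nm scan, is the highest Masliner-normalised natural-log median intensity across replicate spots of either probe orientation.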
row,Sequence,gcPBM binding intensity (ln)
1,TTTTTCTATATTTTCTTTTATAAAATATATAATTTT [GTGCAC_negctrl_site345],9.65 ± 0.071
2,ATAGTTATTTTATAGCGTACACAATAAATATATAAA [XGTACX_site4445],11.7 ± 1.1
3,CACAGAAATAGAGATACACACACACCGATATTTATG [CACACA_site9313],10.22 ± 0.071
4,ATTTTTTTTTTTTTTTTTTTATTCTTAATTCATATA [CACACA_negctrl_site342],9.59 ± 0.085
5,TTTTTGTTTGTTCACGACTACATTATGTCATAAATG [CACACA_negctrl_site597],10.4 ± 0.28
6,TATATATAAATATATACACACATGAAAATAAATAAA [CACACA_site2514],10.02 ± 0.092
7,ATGTATTTATTATTTAGTACACATTATTTTCTTATA [XGTACX_site6365],11.2 ± 0.69
8,AAATTTTCTTTTAAGTGTACGAAATTTAGTATTTCA [XGTACX_site7819],11.2 ± 0.84
9,TAAACAGTATGCAACGCATGCGTTGTTATATATAAA [TGCATGCA_site232],9.88 ± 0.042
10,ATATATATATATGTGTGTACATATATGTGGATGGAT [XGTACX_site6240],11.4 ± 0.86
11,TTATAGGATCAAGCGCGTACATATCTTTATAAAAGA [XGTACX_site5775],11.5 ± 0.93
12,AGGTAGAAAAAAGACACACACATTATGTATATATAT [CACACA_site377],9.86 ± 0.028
13,ATTATTTTAATAAAACGTACAAAATATAAATCAAAA [XGTACX_site3770],11.2 ± 0.72
14,AAAAAATATACATATACACACATATGTATATATAAT [CACACA_site8676],9.94 ± 0.23
15,ATATACAAATATATATATATATATATATATATATAT [CACACA_negctrl_site886],9.89 ± 0.81
16,TATTTCTTTATTGGCACACATTTTTTCAATTATATA [CACACA_site4975],10.5 ± 0.25
17,GCAAATATGTTGATATGTACATATATATATATATAT [XGTACX_site445],11 ± 0.61
18,TAATGTTTTTTTTGTTTACCAAAAATAATACATTAT [CACACA_negctrl_site203],10.1 ± 0.33
19,AATAACAAAATATTAACACACATAACATATTATAAA [CACACA_site2803],9.865 ± 0.064
20,TTTTTTCATATAAATACATGCACACAAAAATATCAA [TGCATGCA_site602],10.4 ± 0.33
21,TTATATATTAATAGTAGTACTATATTGAATCACCCC [XGTACX_site2868],11.3 ± 0.85
22,TATTTATACTCAACTTTCTGTTATTCCAACTTTTTT [XGTACX_negctrl_site410],10.1 ± 0.16

row,Sequence,gcPBM binding intensity (ln)
1,AGTTTATAGTGATATTGTACATATATATATATATAT [XGTACX_site572],10.9 ± 0.59
2,TTATTTTTGTTTTGAAGTACAAAAAAATATATTCTT [XGTACX_site6416],11.1 ± 0.79
3,AAAATTTATATAAGCACACAAATATATATTTATATC [CACACA_site3291],9.92 ± 0.014
4,ACATAAGAACATATTTGTACGTATATAAATTAAATA [XGTACX_site6127],11.4 ± 0.79
5,TTTTAAATCTTATATTCCCCACATAAATAGCTCTCT [GTGCAC_negctrl_site665],9.795 ± 0.035
6,ACAACAAAAATAAGCACACACAAATATACATACATA [CACACA_site7664],10.2 ± 0.29
7,CAACATTAATATAAAGCACACATATATATAATATAT [CACACA_site8064],9.955 ± 0.035
8,ACTCTATAATAAAATACACACAAGACTATCTAATAT [CACACA_site1796],10.12 ± 0.071
9,TTAACGCTTATTTTTTGTACTTATTTTATTTTAAAT [XGTACX_site3977],11.2 ± 0.59
10,ATATATACATATAATTGTACTTGTGTTGTTTTTCTT [XGTACX_site1870],11.1 ± 0.67
11,TAATTATATAAATATTGTACAAAAAAAATATATATA [XGTACX_site3137],11.1 ± 0.73
12,AAAATATATAATATAACACACATATATTCTATATGG [CACACA_site4044],9.66 ± 0.17
13,TTCAAAATATATATTTGTACATATAGGATCTTTTTC [XGTACX_site4500],10.7 ± 0.45
14,GTAATATCAATATAAAGTACACACTATAGTATGTAT [XGTACX_site4714],11.4 ± 0.81
15,TGTAGATATTATATATGTACGCATATGAAATATATA [XGTACX_site1586],11.5 ± 0.94
16,ATTTTAATGACATATACACACAAAGGTTCATAACAA [CACACA_site5664],10.11 ± 0.078
17,ATAAAACCAACATAGAGTACAGATCGACTATGTTTC [XGTACX_site4329],11.2 ± 0.72
18,TTTTCTTTTTAAATTACACACACATATATATATGTA [CACACA_site9172],9.97 ± 0.014
19,TCTTTTTTTTTTTTTTTTTTTTTTTTTTTTTTTTTT [GTGCAC_negctrl_site18],11.4 ± 1.1
20,AAAAAAATTAAAAATAAAGAAAAAAAAAAAAAAAAA [GTGCAC_negctrl_site401],9.38 ± 0.38
21,TATATTCTTTTAAACAGTACACACACACATATATAT [XGTACX_site1701],11 ± 0.61
22,AATATAAAAATATAAAAACACACGTAAAAAAATTTA [CACACA_site3399],9.97 ± 0.11

row,Sequence,gcPBM binding intensity (ln)
1,ATATCTTAAATTATTTGTACATATATATATATATAT [XGTACX_site8034],10.9 ± 0.68
2,TTTTATTTATAATATATACACACTAACATTATTTAT [CACACA_site1284],9.83 ± 0.042
3,GAATATTTATCATGGGGTACCTTAAAAAAGGGAAAA [XGTACX_site298],11.2 ± 0.73
4,TTTTTTTTTTTGAGGAGGACACAAAAATATGCTACC [XGTACX_site756],11.3 ± 0.93
5,AATATAAACCCAAACACACACATATATATATATATA [CACACA_site268],10.1 ± 0.23
6,TATACTCAGAAACACACACACACACCCAAAAAAAAA [CACACA_site4434],10.4 ± 0.36
7,ATATAAGTACATATAACACACATATATTATAAGTAT [CACACA_site2647],11.2 ± 0.79
8,TTTGCCATAAAACACACACACATGTAAACCCCCTTT [CACACA_site1646],10.9 ± 0.57
9,GGAAACCCTCCCAAATGTACTTTTATAAAAAAATAC [XGTACX_site5502],11.2 ± 0.64
10,AAAAAAAAAAAAAAAACACACATACACCCAGACACA [CACACA_site5807],10.6 ± 0.28
11,ATACATATATAAATATGTACACACATATGTATGATC [XGTACX_site8219],11.3 ± 0.71
12,TATGCACGCGAACACACACACACAACTAAAAAATAA [CACACA_site7251],10.6 ± 0.56
13,TTTTTATTTTTTGTCTGTACATATATAAATTTATTA [XGTACX_site1525],11.1 ± 0.77
14,GATATAAGGGTATGAAGTACATAAATATTTTATGCT [XGTACX_site1886],11.3 ± 0.88
15,TTGTTTATGTGAGAAGTGCATTTTTTCGTTCATGTA,10.2 ± 0.19
16,AAGTTTTATATTTATTAAATTTTTTTTTTTCCTTTT [XGTACX_negctrl_site184],9.44 ± 0.23
17,TTTTTTATTTTGTTGAAGCAATGAAAATGAATGAAA [TGCATGCA_negctrl_site495],10.1 ± 0.26
18,ATATGTTTAAAAATATGTACGTATTATATATTCTAT [XGTACX_site1358],11.5 ± 0.94
19,ATGAATTAACCTAATCGTACAATAAATATTATTATA [XGTACX_site596],11 ± 0.81
20,ATATATATATATGTATGTATATATATATGTTTGATT [XGTACX_negctrl_site62],9.93 ± 0.35
21,ACTATTTAAAAATATGGTACACGAAATTCAAGAGAA [XGTACX_site5903],11.2 ± 0.71
22,ATGTAAGTATAAAATGTGCGCATTGGGAATGAGGAC,10.6 ± 0.26

row,Sequence,gcPBM binding intensity (ln)
1,ACTTCATAGGTTACCTGTACATATAAGGAGTTATCA [XGTACX_site4110],11.1 ± 0.71
2,TTTATATAAGGACATGCATGCTATTATTAAATATAT [TGCATGCA_site1011],10.7 ± 0.49
3,TAATATATAAATATATGTACATAATAAATAGGATAT [XGTACX_site3661],11.2 ± 0.66
4,TACGCGAAATGAATATGTACATATATGAGGGCATAT [XGTACX_site4293],11.2 ± 0.66
5,ATTAAATCATATGAATGTACGGATATATATATTTCC [XGTACX_site8650],10.7 ± 0.48
6,TGATAAATTTTCACATGTACATATATAGAATAACCT [XGTACX_site2860],11.3 ± 0.66
7,TATACACATAGACACACACACATACACGCACATACA [CACACA_site6908],10.4 ± 0.3
8,TAATAAGTATCAAAATGTACATGACAAAAATAATTT [XGTACX_site8961],11.1 ± 0.57
9,TCTAAAAAAATTATATCACACATTATAAAGCATATT [CACACA_site4885],9.76 ± 0.014
10,ATATATATGTATATATGTACATATATGTATATATAT [XGTACX_site4772],10.9 ± 0.55
11,ATAATATATGCAAAAACATGCACATAATATGTAAAA [TGCATGCA_site742],9.805 ± 0.007
12,ATAATTTTATATAAATGTACATACATTTTTATTATA [XGTACX_site7368],10.9 ± 0.45
13,AAGATTCATATAAAAAGTACAAAAAGAAAAAAATAA [XGTACX_site6033],11.2 ± 0.7
14,ATTTGAAAAAATACTACACACCATATTGTTAATTTT [CACACA_site3829],10 ± 0.042
15,ATATCTTCACTTATATGTACTTACATTTTTTTTTTT [XGTACX_site8696],11.4 ± 0.81
16,ATAACTATATACATCTGTACATAATACATAGATAAA [XGTACX_site2795],11 ± 0.69
17,CACCCACCCACATACACACACATACACATATATATA [CACACA_site1722],10.2 ± 0.25
18,TTTTTATGTTCTATATATATATATATATATATATAT [GTGCAC_negctrl_site306],10 ± 0.43
19,GCACGTGTGATTAGATGTACATAACATGTATATGTC [XGTACX_site4632],11 ± 0.53
20,TTATAAAAAGAACAATTAAAAAAAAATAAAATAAAA [XGTACX_negctrl_site398],9.75 ± 0.071
21,AGAATAGTGGAAAACACACACGTTTGAGATATGGAC [CACACA_site4782],10.225 ± 0.007
22,CAAATAAAAAAAGTAGCACACATGAATAAAATATAT [CACACA_site3130],10.24 ± 0.071
